Experimental data as given in US11000038B2, “Pyridone compounds and agricultural and horticultural fungicides containing the same as active ingredients” (priority 2017, dated 2021).

Tests used:
[1] = test system: cucumber anthracnose fungi (Colletotrichum orbiculare); test: Test Example H: cucumber anthracnose, spray treatment of cucumber plants; conditions: cucumber anthracnose, 250 ppm spray, 6 to 10 days after inoculation
[2] = test system: tomato late blight fungi (Phytophthora infestans); type: in vivo; conditions: tomato late blight, spray treatment
[3] = test system: rice blast fungi (Magnaporthe grisea); type: in vivo; conditions: rice blast, spray treatment

Compound	Test H control value [1]	Test F control value [2]	Test A control value [3]
Cc1cn(-c2ccccc2)c(-c2ccc(Cl)cc2F)c(C)c1=O [Compound 586]	H (H shows the control value of more than 50%)	L (L shows the control value of 50% or less)	H (H shows the control value of more than 50%)
O=c1c(Br)cn(-c2ccccc2)c(-c2ccc(Cl)cc2F)c1Cl [Compound 587]	H (H shows the control value of more than 50%)	L (L shows the control value of 50% or less)	H (H shows the control value of more than 50%)
O=c1c(Br)cn(-c2ccccc2)c(-c2ccc(Cl)cc2Cl)c1Cl [Compound 588]	H (H shows the control value of more than 50%)	L (L shows the control value of 50% or less)	H (H shows the control value of more than 50%)
Cc1cn(-c2ccccc2)c(-c2c(F)cccc2Cl)c(C)c1=O [Compound 589]	H (H shows the control value of more than 50%)	L (L shows the control value of 50% or less)	H (H shows the control value of more than 50%)
O=c1c(Br)cn(-c2ccccc2)c(-c2c(F)cccc2Cl)c1Cl [Compound 590]	H (H shows the control value of more than 50%)	L (L shows the control value of 50% or less)	H (H shows the control value of more than 50%)
COc1cccc(F)c1-c1c(C)c(=O)c(C)cn1-c1ccccc1 [Compound 591]	L (L shows the control value of 50% or less)	L (L shows the control value of 50% or less)	L (L shows the control value of 50% or less)
Cc1c(-c2ccc(F)cc2F)n(-c2ccccc2)cc(Br)c1=O [Compound 592]	H (H shows the control value of more than 50%)	L (L shows the control value of 50% or less)	L (L shows the control value of 50% or less)
Cc1c(-c2ccc(F)cc2F)n(-c2ccccc2)cc(I)c1=O [Compound 593]	L (L shows the control value of 50% or less)	L (L shows the control value of 50% or less)	H (H shows the control value of more than 50%)
COc1ccc(-c2c(C)c(=O)c(C)cn2-c2ccccc2)c(Br)c1 [Compound 594]	H (H shows the control value of more than 50%)	H (H shows the control value of more than 50%)	L (L shows the control value of 50% or less)
Cc1cn(-c2ccccc2)c(-c2ccc(Cl)cc2Cl)c(C)c1=O [Compound 595]	H (H shows the control value of more than 50%)	L (L shows the control value of 50% or less)	H (H shows the control value of more than 50%)
O=c1c(Br)cn(-c2ccccc2)c(-c2cc(F)ccc2F)c1Cl [Compound 596]	L (L shows the control value of 50% or less)	L (L shows the control value of 50% or less)	L (L shows the control value of 50% or less)
CCc1c(-c2ccc(F)cc2F)n(-c2ccccc2)cc(Br)c1=O [Compound 597]	H (H shows the control value of more than 50%)	L (L shows the control value of 50% or less)	H (H shows the control value of more than 50%)
CCc1c(-c2ccc(F)cc2F)n(-c2ccccc2)cc(C)c1=O [Compound 598]	H (H shows the control value of more than 50%)	L (L shows the control value of 50% or less)	H (H shows the control value of more than 50%)
COc1ccccc1-c1c(Cl)c(=O)c(Br)cn1-c1ccccc1 [Compound 599]	L (L shows the control value of 50% or less)	L (L shows the control value of 50% or less)	L (L shows the control value of 50% or less)
O=c1c(Br)cn(-c2ccccc2)c(-c2ccccc2C(F)(F)F)c1Cl [Compound 600]	H (H shows the control value of more than 50%)	L (L shows the control value of 50% or less)	H (H shows the control value of more than 50%)
Cc1cn(-c2ccccc2)c(-c2c(F)cccc2C(F)(F)F)c(C)c1=O [Compound 601]	H (H shows the control value of more than 50%)	L (L shows the control value of 50% or less)	H (H shows the control value of more than 50%)
COc1ccc(Br)c(-n2cc(C)c(=O)c(C)c2-c2c(F)cccc2F)c1 [Compound 602]	H (H shows the control value of more than 50%)	L (L shows the control value of 50% or less)	H (H shows the control value of more than 50%)

Compound	Test H control value [1]	Test F control value [2]	Test A control value [3]
O=c1c(Br)cn(-c2ccccc2)c(-c2cccc(F)c2F)c1Cl [Compound 603]	L (L shows the control value of 50% or less)	L (L shows the control value of 50% or less)	L (L shows the control value of 50% or less)
O=c1c(Br)cn(-c2ccccc2)c(-c2ccc(F)c(F)c2)c1Cl [Compound 604]	L (L shows the control value of 50% or less)	L (L shows the control value of 50% or less)	L (L shows the control value of 50% or less)
COc1cccc(-n2cc(C)c(=O)c(C)c2-c2c(F)cccc2F)c1 [Compound 605]	H (H shows the control value of more than 50%)	L (L shows the control value of 50% or less)	H (H shows the control value of more than 50%)
COc1ccc(-c2c(C)c(=O)c(C)cn2-c2cc(OC)ccc2C)cc1 [Compound 606]	H (H shows the control value of more than 50%)	L (L shows the control value of 50% or less)	H (H shows the control value of more than 50%)
O=c1c(Br)cn(-c2ccccc2)c(-c2c(F)cccc2Br)c1Cl [Compound 607]	H (H shows the control value of more than 50%)	L (L shows the control value of 50% or less)	H (H shows the control value of more than 50%)
Cc1cn(-c2ccccc2)c(-c2c(F)cccc2Br)c(C)c1=O [Compound 608]	H (H shows the control value of more than 50%)	L (L shows the control value of 50% or less)	H (H shows the control value of more than 50%)
Cc1cccc(F)c1-c1c(Cl)c(=O)c(Br)cn1-c1ccccc1 [Compound 609]	H (H shows the control value of more than 50%)	L (L shows the control value of 50% or less)	H (H shows the control value of more than 50%)
Cc1cccc(F)c1-c1c(C)c(=O)c(C)cn1-c1ccccc1 [Compound 610]	H (H shows the control value of more than 50%)	L (L shows the control value of 50% or less)	L (L shows the control value of 50% or less)
COc1cccc(F)c1-c1c(Cl)c(=O)c(Br)cn1-c1ccccc1 [Compound 611]	L (L shows the control value of 50% or less)	L (L shows the control value of 50% or less)	L (L shows the control value of 50% or less)
COc1cccc(F)c1-c1c(Cl)c(=O)c(Br)cn1-c1ccc(Br)cc1 [Compound 612]	L (L shows the control value of 50% or less)	H (H shows the control value of more than 50%)	L (L shows the control value of 50% or less)
CCc1c(-c2ccc(F)cc2Br)n(-c2ccccc2)cc(Br)c1=O [Compound 613]	L (L shows the control value of 50% or less)	L (L shows the control value of 50% or less)	H (H shows the control value of more than 50%)
Cc1cn(-c2ccccc2)c(-c2cc(F)ccc2F)c(C)c1=O [Compound 614]	H (H shows the control value of more than 50%)	L (L shows the control value of 50% or less)	H (H shows the control value of more than 50%)
Cc1cn(-c2ccccc2)c(-c2cccc(F)c2F)c(C)c1=O [Compound 615]	H (H shows the control value of more than 50%)	L (L shows the control value of 50% or less)	L (L shows the control value of 50% or less)
Cc1cn(-c2ccccc2)c(-c2ccc(F)c(F)c2)c(C)c1=O [Compound 616]	L (L shows the control value of 50% or less)	L (L shows the control value of 50% or less)	L (L shows the control value of 50% or less)
CCc1ccc(OC)cc1-n1cc(C)c(=O)c(C)c1-c1c(F)cccc1F [Compound 617]	H (H shows the control value of more than 50%)	L (L shows the control value of 50% or less)	H (H shows the control value of more than 50%)
CCc1ccc(O)cc1-n1cc(C)c(=O)c(C)c1-c1c(F)cccc1F [Compound 618]	L (L shows the control value of 50% or less)	L (L shows the control value of 50% or less)	H (H shows the control value of more than 50%)
CCc1ccc(OCC#N)cc1-n1cc(C)c(=O)c(C)c1-c1c(F)cccc1F [Compound 619]	H (H shows the control value of more than 50%)	L (L shows the control value of 50% or less)	H (H shows the control value of more than 50%)
